Source: PubChem BioAssay AID1347165 (National Center for Advancing Translational Sciences (NCATS), 2019)
In all, about 220,000 compounds went through this assay and about 5,700 (2.6%) were called active. The inconclusive results got no clear call from the source; some entries with a clear call stand among them for comparison. The call rests on the fitted dose curve; in most records, active means well fitted inhibition curve with a large enough effect; inconclusive means small, poorly fitted or top-dose-only effect; inactive means no such curve, though single readings can be large or run the other way. Potencies beside an inconclusive call are fits to weak or partial responses and may not hold up.

Biological target: Lysine-specific demethylase 5B (Homo sapiens) (UniProt Q9UGL1)
Chain of UniProt Q9UGL1 (Q9UGL1 whole entry, looked up): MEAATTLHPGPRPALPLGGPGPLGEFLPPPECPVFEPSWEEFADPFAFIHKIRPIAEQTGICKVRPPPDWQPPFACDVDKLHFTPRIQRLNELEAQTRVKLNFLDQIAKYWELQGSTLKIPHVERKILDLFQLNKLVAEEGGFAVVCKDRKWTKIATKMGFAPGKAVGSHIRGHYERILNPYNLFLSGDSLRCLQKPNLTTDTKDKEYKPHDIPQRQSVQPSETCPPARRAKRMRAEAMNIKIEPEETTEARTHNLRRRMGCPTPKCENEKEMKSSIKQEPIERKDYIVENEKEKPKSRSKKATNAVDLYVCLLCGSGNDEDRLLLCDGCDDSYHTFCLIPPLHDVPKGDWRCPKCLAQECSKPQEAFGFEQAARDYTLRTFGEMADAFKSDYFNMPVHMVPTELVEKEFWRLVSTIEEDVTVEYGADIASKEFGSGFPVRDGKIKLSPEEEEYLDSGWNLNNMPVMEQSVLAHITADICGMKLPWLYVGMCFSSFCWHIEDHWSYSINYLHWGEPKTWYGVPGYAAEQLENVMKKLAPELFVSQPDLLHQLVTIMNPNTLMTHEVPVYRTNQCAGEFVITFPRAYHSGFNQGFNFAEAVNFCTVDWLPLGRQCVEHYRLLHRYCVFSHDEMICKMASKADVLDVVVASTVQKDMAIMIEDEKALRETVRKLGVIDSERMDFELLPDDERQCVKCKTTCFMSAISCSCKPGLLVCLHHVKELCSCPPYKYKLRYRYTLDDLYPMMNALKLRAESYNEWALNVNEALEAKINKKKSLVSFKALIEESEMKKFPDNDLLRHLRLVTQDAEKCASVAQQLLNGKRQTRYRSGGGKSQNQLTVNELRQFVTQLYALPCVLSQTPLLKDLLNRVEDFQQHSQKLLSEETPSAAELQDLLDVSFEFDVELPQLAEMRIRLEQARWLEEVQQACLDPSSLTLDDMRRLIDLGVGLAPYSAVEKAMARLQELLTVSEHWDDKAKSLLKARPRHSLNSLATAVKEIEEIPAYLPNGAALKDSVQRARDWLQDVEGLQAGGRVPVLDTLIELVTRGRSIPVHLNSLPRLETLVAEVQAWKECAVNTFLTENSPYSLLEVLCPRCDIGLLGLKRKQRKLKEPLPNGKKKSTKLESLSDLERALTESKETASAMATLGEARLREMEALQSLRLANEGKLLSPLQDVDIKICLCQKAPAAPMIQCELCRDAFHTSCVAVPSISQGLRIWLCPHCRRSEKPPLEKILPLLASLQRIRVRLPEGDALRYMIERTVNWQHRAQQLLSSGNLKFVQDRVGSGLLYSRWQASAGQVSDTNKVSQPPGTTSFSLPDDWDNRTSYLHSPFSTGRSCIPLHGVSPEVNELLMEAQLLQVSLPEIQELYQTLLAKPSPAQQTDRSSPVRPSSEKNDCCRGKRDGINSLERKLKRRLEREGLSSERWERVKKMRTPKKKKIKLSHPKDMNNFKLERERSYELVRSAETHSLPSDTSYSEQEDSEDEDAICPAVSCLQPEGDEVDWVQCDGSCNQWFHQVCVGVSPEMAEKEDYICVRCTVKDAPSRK
Assay: Primary screen for KDM5B Histone Demethylases FDH-coupled qHTS; further: nearly all actives have a fitted effect of over 70% in size; on activity change, negative = inhibition: 0% is about no effect
Settings: FDH-coupled NADH fluorescence (FDH is formaldehyde dehydrogenase); activity change, negative = inhibition: at 57.7 µM (top of the series) unless noted
How it was run: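 qHTS format, multiple compound concentrations. Buffer 50 mM HEPES pH 7.5/0.01% Tween-20; 200 nM KDM5BΔAP final; 10 min compound preincubation; substrate-mix levels 12.5 µM peptide, 25 µM α-KG, 0.25 mM NAD⁺; 30 min RT; ΔRFU.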
Potency means the concentration at half of the fitted maximal effect; tags describe the fitted curve by direction and shape.

Compound | Potency | activity change, negative = inhibition
COCCN(Cc1ccco1)C(=O)c1cc2c(=O)[nH]c3ccc(C)cc3c2s1 | inconclusive: 12.6 µM [inhibitor, partial curve, poor fit] | –
N#Cc1ccc(COC(=O)c2cc(-c3ccccc3)c(N3CCOCC3)s2)cc1 | inconclusive: 25.1 µM [inhibitor, partial curve, poor fit] | –
COCCNC(=O)c1ccc2c(c1)N(C)C(CC(=O)N1CCCCC1)CO2 (stereo not drawn) | inconclusive: 28.2 µM [inhibitor, partial curve, poor fit] | –
Cc1nc2ccc(NC(=O)c3cc4c(s3)CCC4)cc2s1 | inconclusive: 39.8 µM [inhibitor, single point] | –
CCCS(=O)(=O)Nc1cccc(-c2cn3ccc(C)cc3n2)c1 | inconclusive: 28.2 µM [inhibitor, partial curve, poor fit] | –
CCOc1cc(C(c2c(C)[nH]c3ccccc23)c2c(C)[nH]c3ccccc23)ccc1O | – | inactive: -27.2%
CCOc1ccc2c(c1)c(=O)c(S(=O)(=O)c1ccc(F)cc1)cn2CC(=O)Nc1ccccc1C | inconclusive: 25.1 µM [inhibitor, partial curve, poor fit] | –
CCC(=O)Oc1ccc2c(-c3cc4ccccc4oc3=O)cc(=O)oc2c1 | – | inactive: 15.4%
CCCc1noc(-c2ccn3c(CNC(=O)c4ccccc4F)nnc3c2)n1 | active: 8.91 µM | –
Cc1nc2nc(N)nc(OCc3ccccc3)c2nc1C | inconclusive: 22.4 µM [inhibitor, partial curve, poor fit] | –
CC(C)Oc1nc2ccccc2nc1N1CCC(C(=O)Nc2ccc(Cl)cc2)CC1 | – | inactive: -5.47%
CC1=C(C#N)C(c2cc(Br)ccc2OC(F)F)C(C#N)=C(C)N1 | inconclusive: 39.8 µM [inhibitor, single point] | –
COCCNC(=O)C[C@@H]1C[C@H]2O[C@H](CNCc3ccccc3C(F)(F)F)[C@@H](O)[C@H]2O1 | – | inactive: -9.96% [at 86.2 µM]
CCC(=O)Oc1ccc2c(C)c(Cc3ccccc3)c(=O)oc2c1 | inconclusive: 14.1 µM [inhibitor, single point] | –
CCc1ccc(CNC(=O)c2cnc3sc(N4CCOCC4)nn3c2=O)cc1 | inconclusive: 2.51 µM [inhibitor, full curve, poor fit] | –
COc1ccc(CCC(=O)Nc2ccc3c(N4CCOCC4)ncnc3c2)cc1 | – | inactive: -7.23%
O=c1cc(-c2cccnc2)oc2c(-c3ccccc3F)nccc12 | active: 35.5 µM | –
CCOc1ccccc1/C=C(/C#N)C(=O)c1cccc(OC)c1 | inconclusive: 39.8 µM [inhibitor, single point] | –
CC(=O)Nc1ccc2nc3c(=O)n(C)c(=O)n(C)c3nc2c1C | inconclusive: 3.98 µM [inhibitor, full curve, poor fit] | –
Cc1cc(C(=O)NCC2(COc3cccnc3)C[C@@H](O)[C@@H](O)C2)n(C)n1 (stereo partly drawn) | inconclusive: 35.5 µM [inhibitor, partial curve, poor fit] | –
CN1CC(=O)N(C2CCNC2)Cc2c1ncnc2N1CCN(c2ncccn2)CC1 (stereo not drawn) | inconclusive: 56.2 µM [inhibitor, partial curve] | –
Cc1ccc(C2C(C#N)=C(N)Oc3cc(C)n(C)c(=O)c32)o1 (stereo not drawn) | inconclusive: 35.5 µM [inhibitor, single point] | –
COc1ccccc1CNC(=O)C(C)n1c(=O)cc(-c2ccccc2)c2c(C)nn(C)c21 (stereo not drawn) | inconclusive: 28.2 µM [inhibitor, partial curve, poor fit] | –

Compound | Potency | activity change, negative = inhibition
O=C(N[C@H]1CCN2C(=O)c3cc(/C=C/c4ccc(O)cc4)ccc3NC(=O)[C@H]12)c1cnccn1 | – | inactive: -10.5%
Cn1c(-c2ccccc2)cnc1NCc1ccccc1O | inconclusive: 14.1 µM [inhibitor, partial curve, poor fit] | –
COc1ccccc1Nc1ncc2c(n1)CN(C(=O)c1cccc(N(C)C)c1)CCN2 | – | inactive: -23.9% [at 86.2 µM]
CC1CCN(c2nc3ccccc3nc2SCC(=O)N2CCCCCC2)CC1 | – | inactive: -1.72%
Cc1ccc(C#N)c(N2CCN(C3CCCC3)C(CCO)C2)n1 (stereo not drawn) | inconclusive: 3.16 µM [inhibitor, single point] | –
O=C(CCC1N=C2c3ccccc3N=C(SCc3ccccc3F)N2C1=O)NCc1ccccc1 (stereo not drawn) | inconclusive: 1.26 µM [inhibitor, full curve, poor fit] | –
COc1ccc(-c2nc(C3CC3)nc3c2CCN(Cc2cccc4ccccc24)CC3)cc1 | inconclusive: 56.2 µM [inhibitor, partial curve, poor fit] | –
COc1ccc(C2=C(C)C(=NCCCN3CCN(c4cc(Cl)ccc4C)CC3)NS2(=O)=O)cc1 | inconclusive: 31.6 µM [inhibitor, single point] | –
CSCCC(=O)NCc1ccc(C)s1 | – | inactive: 0.553%
Fc1ccc(-c2nnn(Cc3cc4c(cc3Br)OCO4)n2)cc1 | – | inactive: 3.21%
COCCCNC(=O)c1ccc(N2CC3CC(C2)[C@H]2CCCC(=O)N2C3)nc1 (stereo partly drawn) | inconclusive: 31.6 µM [inhibitor, single point] | –
COc1ccc2oc(-c3ccc(C)c(NC(=O)c4ccc5c(c4)OCCO5)c3)nc2c1 | inconclusive: 2.51 µM [inhibitor, partial curve, poor fit] | –
COc1ccc(Cl)cc1NC(=O)Cn1c(=O)c(-c2noc(C)n2)c2n(c1=O)CCCC2 | – | inactive: -12.4%
Cc1ccc(S(=O)(=O)Nc2nc3ccccc3nc2NCC2CCCO2)cc1 (stereo not drawn) | inconclusive: 31.6 µM [inhibitor, partial curve, poor fit] | –
Cc1ccn2c(Nc3ccccc3)c(-c3ccccn3)nc2c1 | inconclusive: 28.2 µM [inhibitor, single point] | –
COCCCn1c(=N)c(C(=O)NCc2cccnc2)cc2c(=O)n3cccc(C)c3nc21 | inconclusive: 15.8 µM [inhibitor, partial curve, poor fit] | –
Cc1ccc(-c2cc3c(=O)n(CCNC(=O)c4ccc[nH]c4=O)ccn3n2)cc1C | active: 35.5 µM | –
N#CC1=C(SCC(=O)Nc2ccc3ccccc3c2)NC(=O)CC1c1ccccc1F (stereo not drawn) | – | inactive: -15.5%
O=c1c2ccccc2cnn1CN1CCN(S(=O)(=O)c2cccc(Cl)c2)CC1 | – | inactive: 24.2%
Cc1ccc2oc([C@H]3CCN(Cc4ccc(C(=O)O)cc4)C3)nc2c1 | – | inactive: -3.34% [at 86.2 µM]
O=C(NCCC1=CCCCC1)c1noc(-c2ccc[nH]c2=O)n1 | active: 31.6 µM | –
Cc1cc(=O)n(CC(=O)NCCCc2ccccc2)c(N2CCc3ccccc3C2)n1 | inconclusive: 15.8 µM [inhibitor, partial curve, poor fit] | –
CCCCc1nn2c(=O)cc(COC(=O)c3cccc(Cl)c3)nc2s1 | – | inconclusive: -34.9% [inhibitor]

Compound | Potency | activity change, negative = inhibition
Cc1ccc(-c2cc(N3CCCN(C(=O)c4cccnc4)CC3)n[nH]2)cc1C | – | inactive: -15.6%
COc1ccc(Cl)cc1C(=O)N(C1CCCCC1)C1CCCCC1 | – | inactive: 8.65%
CCn1cc(CN2CCC3(CC2)CN(C)CC3COC)cn1 (stereo not drawn) | active: 25.1 µM | –
CCN1CCN(CCCNC(=O)c2cnn(-c3ccccc3Cl)c2C2CCN(C(=O)OC(C)(C)C)CC2)CC1 | – | inconclusive: -32.6% [inhibitor]
CC(C)CN(CCCNC(=O)c1cc(-c2cccs2)nc2ccccc12)CC(C)C | inconclusive: 2 µM [inhibitor, partial curve, poor fit] | –
Cc1nn(C)c2c1c(-c1ccccc1)cc(=O)n2Cc1ccccc1C#N | inconclusive: 2 µM [inhibitor, full curve, poor fit] | –
Cc1noc(-c2cccs2)c1C(=O)NCc1ccco1 | inconclusive: 25.1 µM [inhibitor, single point] | –
CC(=O)N1C[C@@H]2CCCN3CCC[C@@H]([C@H]23)[C@H]1CCCC(=O)N1CCC(C)CC1 | inconclusive: 22.4 µM [inhibitor, single point] | –
CCC(=O)Nc1ccc2oc(-c3cccc4c(Cl)cccc34)nc2c1 | inconclusive: 2 µM [inhibitor, full curve, poor fit] | –
COc1ccc(C(=O)COC(=O)c2cc(S(N)(=O)=O)ccc2F)c(OC)c1 | – | inactive: 15.9%
Cc1cc(N2CCC(C)CC2)nc2ccc(NC(=O)c3ccc(N(C)C)cc3)cc12 | inconclusive: 1.78 µM [inhibitor, partial curve, poor fit] | –
CCOc1ccc(NC(=O)c2c(NCc3ccc(C)o3)sc3c2CCCCC3)cc1 | inconclusive: 7.94 µM [inhibitor, partial curve, poor fit] | –
CCNC(=O)NC(=O)CSc1nnc(-c2ccccc2)c(-c2ccccc2)n1 | – | inactive: 15.7%
CC1CN(C2=NC(=O)/C(=C3/C(=O)N(Cc4ccc(F)cc4)c4ccccc43)S2)CC(C)O1 (stereo not drawn) | inconclusive: 39.8 µM [inhibitor, single point] | –
COc1ccc(N2CCN(C3CCCN(C/C=C/c4ccccc4OC)C3)CC2)cc1 (stereo not drawn) | inconclusive: 8.91 µM [inhibitor, partial curve] | –
Cc1oc2cc(OCC(=O)O)ccc2c(=O)c1Oc1ccccc1Br | inconclusive: 39.8 µM [inhibitor, single point] | –
OCCN(CCO)CC(O)COc1ccc2ccccc2c1 (stereo not drawn) | – | inactive: 17.2%
CCc1ccc(C(=O)N(Cc2ccccn2)C2CC2)s1 | – | inactive: -3.19%
COc1ccc(Cn2c(C3CCN(C(=O)c4ccc(F)cc4Cl)CC3)n[nH]c2=O)cc1 | – | inactive: 36.8%
Cc1cc(C)cc(C(=O)N2CCN(C(=O)c3cccc4cccnc34)CC2)c1 | – | inactive: -11.3%
COCc1noc(-c2ccc(N(C)CC3CC(=O)N(C(C)(C)C)C3)nc2)n1 (stereo not drawn) | inconclusive: 0.708 µM [inhibitor, single point] | –
O=C(Cc1ccc(F)cc1)N1CCC2(C1)C(=O)N(CCc1ccccc1)c1ccccc12 (stereo not drawn) | inactive | –
